According to PMC4336329 (PLoS ONE, 2015):
About 14,000 (4.5%) of roughly 310,000 compounds showed an effect of 50% or more. The effect is printed as a negative number. Some of the results follow.

These compounds were tested against human ether-à-go-go-related gene (hERG) potassium channel (human, UniProt Q12809) (assay: primary screen, population patch clamp on CHO cells stably expressing hERG).
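Further: peak tail current of the secondary pulse compared with the same well before compound.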

human ether-à-go-go-related gene (hERG) potassium channel, sequence (Q12809 whole entry, looked up): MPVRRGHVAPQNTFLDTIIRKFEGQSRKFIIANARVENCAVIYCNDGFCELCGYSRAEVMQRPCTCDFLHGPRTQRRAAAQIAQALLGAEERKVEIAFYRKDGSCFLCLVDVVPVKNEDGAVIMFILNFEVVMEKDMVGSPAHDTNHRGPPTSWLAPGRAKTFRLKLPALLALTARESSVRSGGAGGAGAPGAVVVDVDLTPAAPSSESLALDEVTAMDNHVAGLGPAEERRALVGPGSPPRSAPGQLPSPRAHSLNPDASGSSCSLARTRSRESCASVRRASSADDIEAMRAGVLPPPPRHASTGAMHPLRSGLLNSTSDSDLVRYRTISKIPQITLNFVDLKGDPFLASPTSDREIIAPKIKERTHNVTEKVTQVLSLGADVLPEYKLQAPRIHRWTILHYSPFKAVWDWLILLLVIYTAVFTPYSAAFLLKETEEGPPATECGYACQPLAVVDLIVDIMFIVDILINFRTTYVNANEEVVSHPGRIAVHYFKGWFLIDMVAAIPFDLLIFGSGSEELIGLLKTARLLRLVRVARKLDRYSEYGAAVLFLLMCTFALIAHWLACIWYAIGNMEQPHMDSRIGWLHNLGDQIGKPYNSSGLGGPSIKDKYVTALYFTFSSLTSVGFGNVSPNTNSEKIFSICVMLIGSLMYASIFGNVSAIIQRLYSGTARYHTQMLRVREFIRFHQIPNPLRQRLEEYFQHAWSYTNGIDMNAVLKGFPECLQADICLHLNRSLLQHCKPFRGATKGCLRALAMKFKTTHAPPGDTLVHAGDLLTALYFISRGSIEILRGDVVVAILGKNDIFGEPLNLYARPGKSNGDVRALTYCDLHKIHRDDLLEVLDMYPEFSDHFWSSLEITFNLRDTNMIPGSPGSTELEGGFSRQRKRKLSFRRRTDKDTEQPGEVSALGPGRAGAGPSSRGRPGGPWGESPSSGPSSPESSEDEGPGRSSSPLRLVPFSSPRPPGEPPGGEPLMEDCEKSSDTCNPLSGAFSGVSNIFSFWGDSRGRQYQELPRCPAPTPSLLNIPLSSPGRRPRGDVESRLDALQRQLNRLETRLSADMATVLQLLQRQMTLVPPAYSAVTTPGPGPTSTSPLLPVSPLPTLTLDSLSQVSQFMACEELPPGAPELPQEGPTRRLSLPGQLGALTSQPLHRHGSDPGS

| Structure (SMILES) | hERG current change (%, negative = inhibition) at 10uM |
| --- | --- |
| CC(=O)Nc1cccc(C(=O)OC(C)C(=O)NC2CCCc3ccccc32)c1 (stereo not drawn) | 4.5% |
| O=C(c1ccc(Cn2c(=S)[nH]c3ccccc3c2=O)cc1)N1CCN(c2ccccn2)CC1 | 8.99% |
| COc1ccc(C2C3=C(Nc4ncnn42)c2ccccc2CC3)cc1OC (stereo not drawn) | 0.84% |
| Cc1ccc(NC(=O)c2ccco2)c([N+](=O)[O-])c1 | 8.13% |
| COC(=O)c1ccc(-c2sc3nc(N4CCOCC4)c4c(c3c2N)CC(C)(C)OC4)o1 | -3.26% |
| C=COC(=O)CSc1nc(-c2cccs2)ccc1C#N | 15.3% |
| COCC(C)n1c(C)cc(C(=O)COC(=O)c2oc3ccccc3c2C)c1C (stereo not drawn) | -19.6% |
| O=C(O)c1cc(NCc2ccc(F)cc2)ccc1N1CCOCC1 | -5.19% |
| CCOC(=O)C1CCN(Cc2ccc(C(=O)OC)cc2)CC1 | -14.6% |
| CN=C1c2ccccc2CN1c1cccc(C(=O)OC)c1 | -13.8% |
| Cc1sc2nc(CN(C(=O)NC3CCCCC3)C3CCCCC3)[nH]c(=O)c2c1C | -11.2% |
| COc1ccc(-c2csc(Cc3nc(O)cs3)n2)cc1 | 23% |
| O=C1NCCCc2nc(Oc3ccccc3)sc21 | 0.239% |
| O=C(O)CSc1nnc(Cc2ccccc2)n1-c1ccccc1 | 5.74% |
| CCOC(=O)c1ccc(NC(=O)C2CCN(C(=O)c3ccc(OC)c(OC)c3)CC2)cc1 | -58.7% |
| COc1cc(OC)cc(-c2c(C#Cc3ccsc3)c3cc(-c4ccc5cc[nH]c5c4)ccc3n2C)c1 | 11.6% |
| Cc1nc(CCNC(=O)C2CCC(=O)N(CCc3cccc(F)c3)C2)sc1C (stereo not drawn) | 7.45% |
| Cc1ccc2nc3c(cc2c1)c(NS(=O)(=O)c1ccccc1)nn3CC(C)C | -1.67% |
| O=C(O)CC(C(=O)O)N1C(=O)/C(=C/C=C/c2ccco2)SC1=S (stereo not drawn) | 13.2% |
| Fc1ccc(-c2csc3ncnc(Cl)c23)cc1 | -4.31% |
| Cl.OCCN(CCO)CC(O)CN(c1ccccc1)c1ccccc1 (stereo not drawn) | -14.6% |
| O=C(NNc1ccccc1Cl)C(O)(c1cccc(C(F)(F)F)c1)c1cccc(C(F)(F)F)c1 | 11.2% |

| Structure (SMILES) | hERG current change (%, negative = inhibition) at 10uM |
| --- | --- |
| COC(=O)[C@@]12CCCN1[C@H](c1ccc(-c3ccccc3)cc1)[C@@H]1C(=O)N(C)C(=O)[C@@H]12.O=C(O)C(F)(F)F | -6.67% |
| COc1ccc(/C(O)=C2\C(=O)C(=O)N(c3cc(C)on3)C2c2ccccc2OC)cc1 (stereo not drawn) | 12.6% |
| O=C(Nc1ccncc1)C1COc2ccccc2O1 (stereo not drawn) | -6.92% |
| C=CCSc1nnc(Cn2c(=O)sc3ccccc32)n1C | -15.3% |
| CCCCN(CCCC)C(=O)c1ccccc1NC(=O)CN1C(=O)c2ccccc2C1=O | -15.4% |
| CC(C)CC(=O)Nc1ccccc1-c1nnn(CC(=O)N2CCc3ccccc3C2)n1 | -37.3% |
| COc1ccc(N/C=C2/Sc3ccccc3NC2=O)cc1 | 13.8% |
| C=CCC1(CC=C)CCCN1C(=O)CC1C(=O)NCCN1Cc1ccccc1OC (stereo not drawn) | -14.7% |
| COc1cc(NC(=O)c2cc3nc(C)cc(C)n3n2)c(OC)cc1Cl | -2.77% |
| FC(F)(F)c1cc(CCN2C(=S)NC[C@@H]2CC2CCCCC2)cc(C(F)(F)F)c1 | 11.5% |
| CC(C)(C)c1o[nH]c(=O)c1CC(N)C(=O)O (stereo not drawn) | 17.5% |
| Fc1cccc(NC(=S)NCCc2ccccc2)c1 | 7.95% |
| O=C(NCCCN1CCOCC1)c1ccc2c(c1)N(Cc1ccc(F)cc1)CCS2 | -31.7% |
| Cl.OC12ONC(c3ccccn3)C1N1CCC2CC1 (stereo not drawn) | 17.4% |
| O=C(N/N=C/c1c[nH]c2ccccc12)c1cc(-c2ccc3ccccc3c2)n[nH]1 | 13% |
| NC(=O)COC(=O)c1ccc2c(c1)S(=O)(=O)N=C1CCCCCN12 | 2.65% |
| CCOc1ccccc1/C=N/NC(=O)c1nnn(-c2nonc2N)c1CN1CCCC1 | 25.1% |
| OC(CNCc1ccccc1F)COc1cccc2ccccc12 (stereo not drawn) | -19.7% |
| CCc1ccc(-c2ccc3nnc(SCC(=O)NCC4CCCO4)n3n2)cc1 (stereo not drawn) | -48.7% |
| C=CCn1c(Cc2ccccc2)nnc1SCc1nc2ccccc2c(=O)[nH]1 | 5.07% |
| O=C1Nc2ccccc2N(O)N1c1cc(-c2cccc(Cl)c2)no1 | 8.12% |
| Cc1oc(-c2ccccc2Cl)nc1CN1C(=O)CN=C(c2ccccc2)c2ccccc21 | -1.8% |

| Structure (SMILES) | hERG current change (%, negative = inhibition) at 10uM |
| --- | --- |
| CCCCc1c(O)nc(SCC(=O)NCCc2ccc(OC)c(OC)c2)[nH]c1=O | -0.0252% |
| CCOCCn1c(N2CCN(c3ccccc3)CC2)nc2c1c(=O)[nH]c(=O)n2C | -23.1% |
| Cc1[nH]c2ccccc2c1C(c1ccncc1)N1CCCCC1 (stereo not drawn) | -1.75% |
| NC(=O)c1ccccc1 | 15% |
| Cc1ccc(C(=O)Nc2ccc(Nc3ccccc3)cc2)cc1C | 17.7% |
| Cc1ccc(S(=O)(=O)N2CCCC(C(=O)Nc3ccc(NC(=O)c4ccccn4)cc3)C2)cc1 (stereo not drawn) | 11.8% |
| CCOC(=O)C1=C(O)/C(=C\c2cccs2)N=C1C | -5.73% |
| CCOc1cc2[nH]c(=O)n(CCCC(=O)NCc3ccco3)c(=O)c2cc1OCC | 5.83% |
| CCOc1cc(CNCCc2ccc(S(N)(=O)=O)cc2)ccc1OCc1ccccc1.Cl | -55.9% |
| COc1ccc2nc(SCCN(C)C)[nH]c2c1.Cl | 12.3% |
| CN(C)c1nc(NC(C)(C)C)nc(SCC(=O)Nc2ccccc2)n1 | 31.4% |
| CN(c1ccccc1)S(=O)(=O)c1ccc(C(=O)OCC(=O)N2CCOCC2)cc1 | 3.03% |
| O=C(C[n+]1ccc(/C=N/O)cc1)NC(=O)Nc1ccccc1 | 10.5% |
| Cc1ccccc1OCC(=O)N/N=C/c1ccc(N2CCOCC2)o1 | -2.25% |
| O=C(NCCCNC(=O)c1ccco1)c1ccc(Cl)cc1 | -8.11% |
| O=C(COC(=O)Cn1cnc2ccccc2c1=O)Nc1ccc(Cl)c(C(F)(F)F)c1 | 2.58% |
| Cc1ccccc1NC(=O)C(Cl)=C(Cl)Cl | 14.7% |
| Cc1ccc(S(=O)(=O)NC(CC(C)C)C(=O)NCC(C)(C)N2CCOCC2)cc1 (stereo not drawn) | 11.6% |
| CC(C)CCN(C(=O)CNC(=O)c1ccco1)C(C(=O)NC1CCCCC1)c1ccco1 (stereo not drawn) | -7.94% |
| COc1ccc([C@@H]2CC=C(C(=O)O)[C@H](c3ccccc3)N2S(=O)(=O)c2ccc(C)cc2)cc1OC | 11.2% |
| COc1cc(Br)c(CN2C(=O)NC3(CCCCCC3)C2=O)cc1OC | 18.1% |
| CC(=O)Nc1ccc(C(=O)OCc2ccc(Cl)cc2)cc1 | -5.91% |

| Structure (SMILES) | hERG current change (%, negative = inhibition) at 10uM |
| --- | --- |
| CCn1cc(CNC(=O)/C=C/c2ccc([N+](=O)[O-])cc2)cn1 | -33.6% |
| COc1ccc(C(=O)CSc2ccc(-c3ccco3)nn2)cc1 | -78.1% |
| CCOC(=O)c1nn(-c2ccc(F)cc2)c(=O)c(C#N)c1C | 33% |
| COc1ccc(S(=O)(=O)NC(C)C(=O)Nc2cccc(C(C)=O)c2)cc1 (stereo not drawn) | 0.77% |
| CC1CC(C)(C)NC(=S)N1CCCC(=O)Nc1ccc2c(c1)OCCO2 (stereo not drawn) | -4.4% |
| COc1ccc(NC(=O)CN2CCc3ccccc3C2)cc1S(=O)(=O)N1CCOCC1 | -15.4% |
| CCN1C(=O)[C@H]2[C@@H](c3ccc(C)cc3)N3C(=O)N(c4ccc(OC)cc4)C(=O)[C@@]3(C)[C@H]2C1=O | 10% |
| CC1=NN(C(N)=S)C(=O)C1N=Nc1ccc(Cl)cc1 (stereo not drawn) | 1.83% |
| COC(=O)CCNC(=O)c1nn(Cc2ccccc2)c(=O)c2ccccc12 | -9.37% |
| CCOc1ccc(Nc2nc(N)c3ccccc3n2)cc1.Cl | -41.8% |
| COCCn1c(SCc2cc(=O)n3cc(C)ccc3n2)nc2ccccc2c1=O | 13.7% |
| O=C(N/N=C/C=C/c1ccccc1[N+](=O)[O-])c1cc(-c2ccccc2)n[nH]1 | -8.06% |
| CC(CC(=O)Nc1ccc2c(c1)OCO2)c1ccccc1 (stereo not drawn) | 5.62% |
| Cc1cc(N2CCN(C)CC2)nc2ccc(NC(=S)NCCC(C)C)cc12 | -51.2% |
| C/C(=C1/SC(=S)N(CCC(=O)O)C1=O)c1ccc(O)cc1 | 9.74% |
| N#Cc1cccc(NC(=O)Nc2cccs2)c1 | 20.2% |
| O=C(c1ccccc1)N1CCN(Cc2cccc(Oc3ccccc3)c2)CC1 | -50.1% |
| CCOc1ccc(NC(=O)NC(C)c2ccc3c(c2)OCO3)cc1 (stereo not drawn) | 21.3% |
| CCCn1nc(C(=O)NNC(=O)CCCOc2ccc(OC)cc2)c2ccccc2c1=O | -8.53% |
| O=C(CN1C(=O)c2ccccc2C1=O)Nc1ccc(-c2nc3ccccc3o2)cc1 | -6.56% |
| COc1ccc([C@H]2CC(=O)C=C(c3ccc(Cl)c(Cl)c3)C2)cc1 | 8.22% |
